The structures appear in SMILES notation. Among all 310,000 compounds or so, about 2,200 (0.71%) showed an effect of 50% or more. Effects have a minus sign here. The list shows a part of the results.

Sequence of human ether-à-go-go-related gene (hERG) potassium channel (Q12809 whole entry, looked up): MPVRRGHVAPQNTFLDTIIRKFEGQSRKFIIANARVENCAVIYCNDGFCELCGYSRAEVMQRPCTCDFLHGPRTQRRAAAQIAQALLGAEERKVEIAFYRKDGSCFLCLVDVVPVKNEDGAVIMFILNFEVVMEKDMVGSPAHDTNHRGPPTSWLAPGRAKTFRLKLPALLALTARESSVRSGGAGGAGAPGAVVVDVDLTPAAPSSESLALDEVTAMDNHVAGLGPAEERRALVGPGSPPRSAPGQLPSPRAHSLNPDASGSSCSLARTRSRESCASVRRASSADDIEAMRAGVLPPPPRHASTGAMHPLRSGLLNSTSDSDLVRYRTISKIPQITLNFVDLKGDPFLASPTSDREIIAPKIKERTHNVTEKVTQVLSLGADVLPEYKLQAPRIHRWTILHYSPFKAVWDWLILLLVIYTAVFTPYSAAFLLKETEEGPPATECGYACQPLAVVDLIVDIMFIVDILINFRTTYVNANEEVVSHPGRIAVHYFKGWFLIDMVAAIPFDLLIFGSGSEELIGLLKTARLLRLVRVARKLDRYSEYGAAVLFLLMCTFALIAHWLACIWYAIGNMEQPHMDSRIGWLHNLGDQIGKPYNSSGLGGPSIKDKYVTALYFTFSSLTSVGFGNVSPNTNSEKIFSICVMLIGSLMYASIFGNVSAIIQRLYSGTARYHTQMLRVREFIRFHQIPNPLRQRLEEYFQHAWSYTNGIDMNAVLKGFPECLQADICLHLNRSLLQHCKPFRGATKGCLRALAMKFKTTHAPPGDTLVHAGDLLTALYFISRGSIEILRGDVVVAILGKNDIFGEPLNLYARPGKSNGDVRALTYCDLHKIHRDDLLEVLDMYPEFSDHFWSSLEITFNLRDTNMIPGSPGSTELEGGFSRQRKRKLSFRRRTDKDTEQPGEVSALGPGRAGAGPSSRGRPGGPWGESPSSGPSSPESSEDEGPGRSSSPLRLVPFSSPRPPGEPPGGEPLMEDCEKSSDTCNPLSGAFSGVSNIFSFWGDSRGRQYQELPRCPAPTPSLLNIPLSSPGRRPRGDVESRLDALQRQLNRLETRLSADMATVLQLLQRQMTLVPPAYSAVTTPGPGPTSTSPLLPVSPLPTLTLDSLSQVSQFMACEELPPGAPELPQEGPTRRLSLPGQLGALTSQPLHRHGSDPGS

The assay addresses human ether-à-go-go-related gene (hERG) potassium channel (human, UniProt Q12809). Nature of the assay: primary screen, population patch clamp on CHO cells stably expressing hERG.
Take `O=C(CNC1CCCCC1)N1CCc2ccccc2C1`: the “hERG current change (%, negative = inhibition) at 1uM” value is -0.403%.
Then `COc1ccc2c(c1)C(=O)CCC2c1ccccc1` (centres unmarked), with -0.189%; and `COc1ccc(NC(=S)NNC(=S)Nc2cccc(C(F)(F)F)c2)cc1`, with 7.6%.
Turning to `Cc1sc2nc(-c3ccncc3)[nH]c(=O)c2c1-c1ccccc1`, the “hERG current change (%, negative = inhibition) at 1uM” value is on record as 4.38%.
Then `Cc1ccc(NC(=O)C2CCCNC2=O)nc1` (centres unmarked), with 5.14%; and `Cc1c(NC(=O)C23CC4CC(CC(C4)C2)C3)c(=O)n(-c2ccccc2)n1C`, with 19.2%.
Then `CCCCC(=O)Nc1ccc(C(=O)N(CC)c2ccccc2C)cc1`, with 14.6%.
On to `CCOc1ccc(CCNC(=O)CN2C(=O)NC3(CCCCC3C)C2=O)cc1OCC` (centres unmarked), for which the “hERG current change (%, negative = inhibition) at 1uM” value was 14.6%.
As for `Cc1nnc(-c2cnn(C)c2N)n1CCCN1CCOCC1`, the figure is 5.12%; as for `COc1cccc(C(c2c(C)[nH]n(-c3ccccc3)c2=O)c2c(C)[nH]n(-c3ccccc3)c2=O)c1OC`, 7.35%; as for `COc1ccccc1C(=O)NCc1ccncc1`, 11.7%.
As for `CCCc1cc(=O)oc2c3c(c(Cl)cc12)OCN(CCCO)C3`, the figure is 16.3%; as for `COc1ccc(NC(=O)Cn2nnc(C(=O)NCc3ccccc3)c2N)cc1Cl`, 0.794%; as for `CCN(CC)S(=O)(=O)c1ccc(NC(=O)C(C)N(c2ccccc2)S(C)(=O)=O)cc1` (centres unmarked), 10.2%.
On to `CCCC(=O)NC(=S)Nc1ccc(NC(=O)C(C)C)c(OC)c1`, for which the “hERG current change (%, negative = inhibition) at 1uM” value is -8.37%.
As for `COc1ccc(C(C)(C)C)cc1NC(=O)C1CC=CCC1C(=O)O` (centres unmarked), the figure is 11.5%; as for `CCOC(=O)CN1C(=O)N[C@@H](c2ccc(Br)cc2)C(C(=O)OC)=C1C`, 4.15%.
As for `CCS(=O)(=O)N1CCC(N2CCC(C)CC2)CC1.O=C(O)C(=O)O`, the figure is 4.36%.
Then `COC(=O)Nc1[nH]ncc1[N+](=O)[O-]`, with 15.7%.
Take `CCCCNc1c2c3c(cccc3n(C)c1=O)C(=O)c1ccccc1-2`: the “hERG current change (%, negative = inhibition) at 1uM” value was -3.58%.
As for `CCOc1ccc(CN2CCC(n3nccc3NC(=O)c3ccccc3OC)CC2)cc1`, the figure is -89.4%.
As for `COc1ccccc1C(=O)Nc1c[nH]c(=O)[nH]c1=O`, the “hERG current change (%, negative = inhibition) at 1uM” value worked out at 12.1%.
As for `Cc1nc(-c2ccc(S(=O)(=O)Nc3ccc(Br)cc3Cl)s2)cs1`, the figure is 10.4%; as for `CN1CCC(N(C)C(=O)c2sc3cc(F)ccc3c2Cl)CC1`, -13.8%; as for `Cc1c(C=O)c2ccccc2n1CC(=O)NCc1ccc2c(c1)OCO2`, 20.1%.
As for `CCN(C(=O)CSc1cc(C)c2ccccc2n1)C1CCS(=O)(=O)C1` (centres unmarked), the figure is 3.62%.
